Source: the RNAGym collection of RNA variant scans (doi:10.7554/elife.90254)
Read counts are not given, so values of variants with three or more changes are uncertain.

B1: LINE1-mini (parent)
chain: GGCAGAGCUCAACACAGCGUGGCAAAGUGGCUGUGGCUAGACUGCC

Variants of: B1
Test: self-cleavage, relative activity (ratio to wild type); higher = more cleavage; in vitro, sequencing; the parent is a self-cleaving ribozyme

Row | Variant | self-cleavage
1 | G5U C10A U28C G35U | 0.02
2 | A6C C31A C42A | 0.03
3 | A6C C23G A39C C45U | 0.72
4 | A6C C23G A39C | 0.03
5 | G5U C10U G17C U34C | 0.04
6 | G5U G17A G30U C42A | 0.06
7 | G5U U20G A24U C37U | 0.02
8 | G5U C10U G22U G35A | 0.03
9 | G5U U9G G29U U34C | 0.01
10 | G5U C18G G30C G33C | 0.03
11 | G5U G21C C37A | 0
12 | G5U G19U C45G | 0.01
13 | G5U C8A A14G G40U | 0.2
14 | A6C C10A G17U U38A | 0.01
15 | G5U C15G A25U | 0.3
16 | G5U G7C C15U A39C | 0.19
17 | G5U C37A G40C | 0.02
18 | A6C G7C G36A C46G | 0.17
19 | G5U G7C C23G G36A | 0.37
20 | A6C C10G G17C C31G G40C | 0.01
21 | A6C A25U G29A U38C | 1.01
22 | A6C G7A C15A C18U G21C | 0.06
23 | G5U C10A A41U | 0.03
24 | G5U U9A C13A G33C | 0.11

Row | Variant | self-cleavage
25 | A6C C13A G17C C18A C37U | 0.95
26 | G5U U20C U28A G40U U43G | 0
27 | A6C C23A U28C C45G | 0.49
28 | G5U G19A A41G C45A | 0.29
29 | G5U U20G U38C | 0.03
30 | A6C A16U U28G G30C C46U | 1.13
31 | G5U C23A C31U U32A | 0.04
32 | G5U G19U A26G U28A U38G G44C | 0.01
33 | A6C G7A A39U | 0.08
34 | G5U C15A U43C | 0
35 | A6C C42A C45U | 0.07
36 | A6C G7U C15G G44C | 0.02
37 | A6C C10A G29U | 0.03
38 | G5U C13U U38A | 0.05
39 | G5U G19U A26U U43C | 0.02
40 | G5U G36A U38G A39C C46A | 0.04
41 | G5U C8A G36U | 0.17
42 | G5U G7A A26C G40A C46U | 0.05
43 | G5U G7A C15U G30C | 0.15
44 | A6C A25C A41G G44U C46U | 0.15
45 | G5U G19A U20G G30U | 0.05
46 | G5U U20A G27C C37U | 0.02
47 | G5U C10U C42U U43A G44C | 0.02
48 | G5U U28G C46U | 0.02

Row | Variant | self-cleavage
49 | A6C C8U U9C G33U U34C | 0.1
50 | G5U G35C G36A | 0.08
51 | G5U C15A C18G A39C | 0.01
52 | A6C A25G G27C C42G | 0
53 | G5U G19U U20A | 0.05
54 | A6C A12C G27A C42G | 0.01
55 | A6C A11U C23U | 0.01
56 | G5U C18A U20A A41U C45A | 0.01
57 | G5U G7C G29U | 0.28
58 | G5U U34A A39U G44A | 0.02
59 | A6C C15U G22U U43C | 0.02
60 | G5U C8U U9A G19C C23A U32C | 0.06
61 | A6C C10A A14C A16U C46U | 1.63
62 | G5U C8A C10U G44U C45A | 0.05
63 | A6C A12U A14C U34C C46U | 0.03
64 | A6C A14U G30C | 0.07
65 | A6C A16G G29U | 0.56
66 | G5U U9G C10U | 0.07
67 | A6C C13U G17C U32C | 0.15
68 | G5U G17U C18A G21C G22A C31U A39U C46A | 0.07
69 | A6C C10A C18G | 0.04
70 | G5U C10G C15U A24G | 0.01
71 | A6C C10A C18A U43C G44U | 0.06
72 | A6C C23A C31A G35A | 0.01

Row | Variant | self-cleavage
73 | G5U G36A A41U | 0.09
74 | G5U C8G A11G G27A C31A | 0.02
75 | G5U G19C U32A U38G | 0.11
76 | G5U U9A G17C U38A A39G C42G | 0.03
77 | G5U G27A C31A U32C | 0.02
78 | A6C C23U U28C | 0.99
79 | G5U G19C A25C G40U C46A | 0.01
80 | G5U C18A C23A G33A G40C | 0.03
81 | A6C C13U A39U A41C | 0.04
82 | G5U C10U G27U C31A C37A G44A | 0.01
83 | G5U G21U C37A | 0.04
84 | G5U G29U U32A | 0.06
85 | G5U U9G A16U | 0.06
86 | A6C A24U G33A C42U | 0.05
87 | A6C C15G C18A | 0.06
88 | G5U U9A G35A | 0.06
89 | G5U G29U U32G C37A | 0.04
90 | G5U U9G G17C G33A C37A G44A | 0.01
91 | A6C C23G C31G | 0.03
92 | G5U G19A G35A | 0.1
93 | G5U G7U C15G U20C | 0.02
94 | G5U G22C A26G | 0.04
95 | G5U C10G C23A | 0.01
96 | A6C C10A U28A | 0.01

Row | Variant | self-cleavage
97 | G5U C8A G17A G22U A41U | 0.27
98 | G5U C15G U20C G40U | 0.01
99 | G5U G29U C37A A39C | 0.01
100 | G5U C31G G35C A41U C45U | 0.03
101 | G5U C8G G35U U38G | 0.05
102 | G5U C10A A16C G21U G36U | 0.06
103 | G5U U9A G21C G33A | 0.04
104 | A6C C10G A24U G27C U38G | 0.01
105 | G5U C8U G30A C31U A39U | 0.1
106 | A6C G7A A16U G22U U43C | 0
107 | G5U C15A A39G C46A | 0.02
108 | G5U C8U C13A A41C | 0.06
109 | G5U G36C A39G G44C | 0.03
110 | G5U G19U A24C | 0.04
111 | A6C C15U C18U G44U | 0.02
112 | A6C C15U G30C A39C C46G | 0.06
113 | G5U C8G G19A U32A G33A | 0.2
114 | A6C C18A U28C | 0.04
115 | A6C C18U G27A G30U G44C | 0.18
116 | A6C C37A G44U | 0.11
117 | G5U G7C C13G A26C | 0.04
118 | G5U C18G G27C C31G G33U | 0.04
119 | G5U C13G U20C G22A G29U G35U | 0.1
120 | G5U C13U C45G | 0.05

Row | Variant | self-cleavage
121 | G5U C13U C45A | 0.04
122 | G5U C10G A41C | 0.03
123 | A6C A14C G22U C46U | 0.09
124 | A6C C10U A24U A41C | 0.01
125 | G5U C10U G35C | 0.09
126 | A6C C13A G30A G33A | 0.03
127 | A6C C8U A14C | 0.22
128 | A6C G7U C15U G19A C23G A25C G33U G35C U38A | 0.01
129 | G5U C15U C45G | 0.07
130 | G5U G7U A11U A12C | 0.05
131 | G5U A39G U43C | 0.1
132 | G5U U9C A16U G17A C37G G40A | 0
133 | G5U U20C A24U U32G G40C | 0
134 | A6C C8A G30U U38A G40C | 0.2
135 | A6C A25U G29A U34G | 0.4
136 | G5U G21A G30U | 0.18
137 | A6C C18U C23U C46U | 0.41
138 | G5U G7A C13U A26U C31U G33C | 0.18
139 | G5U G35A G44U | 0.05
140 | A6C C31U U43A | 0.02
141 | A6C A11G G44A | 0.01
142 | A6C A39C C45A | 0.07
143 | A6C C15A G17U G19C U20G | 0.01
144 | G5U C13U U28A A41C U43C | 0.02

Row | Variant | self-cleavage
145 | A6C C10U G21A A25G U38C | 0.36
146 | A6C A24G U34G | 0.03
147 | A6C C13U G19C C31G U34G | 0.03
148 | G5U C10U U20A U28A G40C | 0.01
149 | G5U A41C G44A | 0.08
150 | G5U C23G U43A | 0.04
151 | G5U C8U C10A G22A C37A | 0.02
152 | A6C G7A C13G | 0.34
153 | A6C C8A C23U C42U | 0
154 | A6C A16G G35C | 0.02
155 | G5U G7U A12U A26C | 0.12
156 | G5U G19U G27U | 0.04
157 | G5U U9C U38C | 0
158 | A6C A12G U20G A26U U38G | 0.01
159 | G5U C8A C10A | 0.02
160 | G5U C8G C15U G27U | 0.06
161 | A6C C10A A25C A39G | 0.01
162 | G5U U38C A39G | 0.02
163 | A6C C31A G36C G44C | 0.07
164 | G5U C18G C23U | 0.02
165 | G5U C15G C45U | 0.06
166 | G5U U9G C13A | 0.05
167 | G5U C13U G19A U20A A24G | 0.03
